# Experimental data reported in PubChem BioAssay AID686978 (National Center for Advancing Translational Sciences (NCATS), 2013).
# The whole screen tested about 420,000 compounds, of which about 64,000 (15%) were called active. This list was built around the results that the source calls inconclusive (neither active nor inactive); the mix of calls is not that of the screen. Calls follow the shape of the dose curve; as a rule, active = well fitted inhibition curve with a large enough effect; inconclusive = small, poorly fitted or top-dose-only effect; inactive = flat fitted curve, though single readings scatter. No potency is given beside an inconclusive call; the fits are too rough.
# Assay: qHTS for Inhibitors of human tyrosyl-DNA phosphodiesterase 1 (TDP1): qHTS in cells in absence of CPT; also: nearly all actives have a fitted effect of over 55% in size
# Details: DT40 Tdp1-/- hTDP1 cells, no CPT, ATP luminescence, 48 h; activity change, negative = growth inhibition: at 46.2 µM (top of the series) unless noted
# How it was run: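 Cells were dispensed at 400 per well, compounds added by pin tool, plates incubated ≥48 hr at 37 °C, then CellTiter-Glo added for 30 min at room temperature before luminescence reading. Line: DT40 Tdp1-/- complemented with hTDP1; camptothecin omitted.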
# % is scaled to controls: 0 for no effect and ±100 for the full control effect; potency is read from the fitted curve at half-maximal effect; tags tell the direction and shape of the fitted curve.
Structure (SMILES),Potency,"activity change, negative = growth inhibition"
COc1ccc2c(c1OC)OCC2C (stereo unspecified),active: 18.4 µM,
O=C(OCc1nnc(-c2ccccc2)o1)C12CC3CC(CC(Br)(C3)C1)C2,"inconclusive [inhibitor, single point]",
COCCCNc1ccn2nc(-c3ccc(OCc4ccccc4)cc3)cc2n1,"inconclusive [inhibitor, single point]",
COc1ccc(/C(N)=N/OC(=O)c2cccs2)cc1OC,"inconclusive [inhibitor, single point]",
COc1ccc(OC)c(NC(=O)C(CC(C)C)NC(=O)C2CCCCC2)c1 (stereo unspecified),"inconclusive [inhibitor, single point]",
COc1ccc(-n2nnnc2SCC(=O)c2cc3ccccc3o2)cc1,"inconclusive [inhibitor, single point]",
CCC1C=C(c2ccccc2)C=CN=C1N(CC)CC (stereo unspecified),"inconclusive [inhibitor, single point]",
CC(C)(C)NC(=O)C(c1ccnc2ccccc12)n1c(=O)c(-c2ccco2)nc2ccccc21 (stereo unspecified),"inconclusive [inhibitor, single point]",
O=C(Nc1cccc(-c2cn3ccccc3n2)c1)c1cc2ccccc2oc1=O,active: 3.66 µM,
Cc1cccc(NC(=O)c2sc3nc(N4CCOCC4)c4c(c3c2N)CC(C)(C)OC4)c1,active: 7.31 µM,
CC(Sc1nccn1C)C(=O)Nc1ccc(C(N)=O)cc1 (stereo unspecified),,inactive: -4.96%
O=C(Nc1ccccc1N1CCOCC1)c1cccc2ccccc12,,inactive: -18.3%
CC(=O)N1c2ccc(S(=O)(=O)NCCC(=O)Nc3ccc(Br)c(C)c3)cc2CC1C (stereo unspecified),active: 5.17 µM,
CCc1nnc(NC(=O)c2ccc(NS(=O)(=O)c3ccccc3)cc2)s1,"inconclusive [inhibitor, single point]",inconclusive: -31.2% [inhibitor]
CC1=C(C(=O)Nc2ccc(C)cc2Cl)C2(CCCCCC2)OC1=O,"inconclusive [inhibitor, single point]",
Cc1cccc2sc(NC(=O)c3ccc(OCC4CCCO4)cc3)nc12 (stereo unspecified),"inconclusive [inhibitor, single point]",
CCOC(=O)C1=CN(Cc2cccc(F)c2)S(=O)(=O)N(C)C1c1ccc(C(F)(F)F)cc1 (stereo unspecified),"inconclusive [inhibitor, single point]",
COc1ccc([C@@H]2CNC(=O)C2)cc1OC1CCCC1,"inconclusive [inhibitor, partial curve, poor fit]",
CCN1C(=O)/C(=C/C=C2\C=CN(CC)c3ccccc32)SC1=S,active: 16.4 µM,
OCc1ncccc1O,,inactive: 3.37%
O=C(CCN1C(=O)/C(=C\c2ccccc2Cl)SC1=S)Nc1cccnc1,"inconclusive [inhibitor, partial curve]",
COc1cc(C(=O)Nc2ccc(C(C)=O)cc2)c(Br)c(OC)c1OC,"inconclusive [inhibitor, partial curve, poor fit]",
C=CCNC(=O)c1n[nH]c2c1CC(C(C)(C)CC)CC2 (stereo unspecified),"inconclusive [inhibitor, single point]",

Structure (SMILES),Potency,"activity change, negative = growth inhibition"
Cc1ccc(C(=O)NNc2ncnc3c2cnn3C)cc1,,inactive: -6.49%
O=C(NNC(=O)c1ccccc1O)c1cccc(Br)c1,"inconclusive [inhibitor, single point]",
Cc1ccc(S(=O)(=O)N2CCCC2CNC(=O)C(=O)NC2CCCC2)cc1 (stereo unspecified),"inconclusive [inhibitor, single point]",
CCOC(=O)N1CCN(C(=O)CSCC(=O)Nc2nc(-c3ccccc3)cs2)CC1,"inconclusive [inhibitor, single point]",
Cc1cc(-c2nc(C)c(-c3nnc(SCC(=O)Nc4ccccc4)n3C)s2)no1,,inactive: 4.42%
Cc1ccc(C)c2sc(N3CCN(C(=O)C(C)(C)C)CC3)nc12,"inconclusive [inhibitor, single point]",
O=C(Nc1cccc(C(F)(F)F)c1)c1csc([C@@H]2O[C@H](CO)[C@@H](O)[C@H]2O)n1,"inconclusive [inhibitor, partial curve]",
Cc1ccc(CSc2n[nH]c(N)n2)cc1,,inactive: 16.5%
CCN(CCCNC(=O)c1cc2c(Cl)nc3ccccc3c2s1)Cc1ccccc1,active: 23.1 µM,
O=C(Nc1cccc(-c2nnc(-c3ccccc3)o2)c1)c1ccco1,"inconclusive [inhibitor, full curve]",
CSc1nc2ccccc2cc1/C=C(\C#N)c1cccc(C)c1,"inconclusive [inhibitor, single point]",
CCOC(=O)Cc1csc(NC(=O)NC2(C(F)(F)F)Oc3cc(Cl)c(Cl)cc3O2)n1,"inconclusive [inhibitor, single point]",
CC1C/C(=C/c2cccn2C)C(=O)/C(=C/c2cccn2C)C1 (stereo unspecified),active: 23.1 µM,
CC(=O)c1c(C)oc2ccc(N(C(C)=O)S(=O)(=O)c3ccc(F)cc3C)cc12,active: 16.4 µM,
Cc1ccc(/C=C/c2ccc(=O)n(Cc3ccc(F)cc3)n2)cc1,"inconclusive [inhibitor, single point]",
CCOC(=O)c1cn(CC2CC2)c2cc(F)c(F)cc2c1=O,,inactive: -24.1%
CCN(CC)CCNC(=O)Nc1ccc2c(c1)N(Cc1ccccc1)C(=O)c1ccccc1S2,"inconclusive [inhibitor, single point]",
Cc1nn2c(NCCN(C)C)c3c(nc2c1-c1ccccc1)CCCC3,active: 1.03 µM,
COc1nc(-c2ccccc2)ccc1-c1noc(-c2ccco2)n1,,inactive: -0.0902%
CCC(C)(O)c1[nH]c2ccc(C(F)(F)F)cc2c1C (stereo unspecified),"inconclusive [inhibitor, single point]",
COc1ccc(/C=C2\SC(=S)N(CC(=O)N3CCN(C)CC3)C2=O)cc1,active: 20.6 µM,
COC(=O)c1ccc(Oc2ccc(C(C)(C)C)cc2)c([N+](=O)[O-])c1,"inconclusive [inhibitor, partial curve, poor fit]",
